Laboratory results: PubChem BioAssay AID624417 (National Center for Advancing Translational Sciences (NCATS), 2012)
The whole screen tested about 410,000 compounds, of which about 6,400 (1.6%) were called active. Inconclusive results, whose numbers are uncertain, are shown with a selection of clear calls. Calls come from the whole dose curve; as a rule, active = well fitted inhibition curve with a large enough effect; inconclusive = small, poorly fitted or top-dose-only effect; inactive = no such curve, though single readings can be large or run the other way. No potency is given beside an inconclusive call; the fits are too rough.
% is set by controls: 0 for no effect and ±100 for the full control effect; potency is the fitted concentration of half-maximal effect; tags give direction and shape of the fitted curve.
Note: nearly all actives have a fitted effect of over 55% in size.

What follows are molecules tested against Glucagon-like peptide 1 receptor (Homo sapiens) (UniProt P43220) (assay: qHTS of GLP-1 Receptor Inverse Agonists (Inhibition Mode)). Settings: HEK293 GLP-1R CRE-luciferase, luminescence, 24 h, GLP-1R form is constitutively active; activity change, negative = inhibition: at 38.3 µM (top of the series) unless noted.
Sequence of UniProt P43220 (P43220 whole entry, looked up): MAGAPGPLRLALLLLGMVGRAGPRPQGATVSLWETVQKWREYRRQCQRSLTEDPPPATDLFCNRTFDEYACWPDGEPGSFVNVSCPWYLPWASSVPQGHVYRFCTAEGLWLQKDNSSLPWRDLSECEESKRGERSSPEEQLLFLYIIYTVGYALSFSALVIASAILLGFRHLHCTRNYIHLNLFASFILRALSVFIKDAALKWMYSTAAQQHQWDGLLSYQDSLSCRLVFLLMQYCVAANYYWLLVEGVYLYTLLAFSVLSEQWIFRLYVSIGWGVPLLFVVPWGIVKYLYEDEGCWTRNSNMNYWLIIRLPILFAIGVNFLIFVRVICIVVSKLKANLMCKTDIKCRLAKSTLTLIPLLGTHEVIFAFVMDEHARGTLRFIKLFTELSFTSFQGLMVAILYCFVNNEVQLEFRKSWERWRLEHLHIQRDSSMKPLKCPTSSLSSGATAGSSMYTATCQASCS
Outline: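 Seeding at 200 cells/uL, 12 h culture, 24 hr compound treatment, then luciferase reagent and a luminescence read; cells are HEK293 stably expressing a constitutively active GLP-1R plus cAMP-responsive luciferase.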
With `COc1ccc(Cl)cc1Cn1c(C)c(C(=O)NCc2cccc(C(F)(F)F)c2)sc1=O` the Potency was inconclusive [inhibitor, partial curve, poor fit]. With `CCOC(=O)c1cc(C)n(CC2CCC(C(=O)Nc3cccc(C(C)=O)c3)CC2)c1C` (stereo not drawn) the “activity change, negative = inhibition” value was inactive: -1.79%. `CCc1cc(CNC(=O)CC2C(=O)NCCN2Cc2ccc(-c3ccccc3)cc2)on1` (stereo not drawn) was tested, and the “activity change, negative = inhibition” value was inactive: 17.2%. With `CCOc1ccccc1Oc1ncnc2c1oc1ccccc12` the Potency was inconclusive [inhibitor, partial curve, poor fit]. In the case of `COc1ccc(-n2c(SCc3ccc([N+](=O)[O-])cc3)nnc2-c2ccc(C)cc2)cc1`, the Potency is reported as inconclusive [inhibitor, partial curve, poor fit]. In the case of `c1csc(C2=NNC(=NC3CCCCC3)SC2)c1`, the Potency is reported as inconclusive [inhibitor, single point]. In the case of `COc1ccccc1OCc1nc2ccccc2n1Cc1ccccc1`, the Potency is reported as inconclusive [inhibitor, single point]. `O=C(O)c1cccc(-n2cccc2/C=C\[N+](=O)[O-])c1` was tested, and the “activity change, negative = inhibition” value was inactive: 17.2%. For `CCCNC(=O)C1(C)CCCN(C(=O)c2oc3ccccc3c2C)C1` (stereo not drawn), the “activity change, negative = inhibition” value was inactive: 17.5%. For `C=CCN(CC=C)c1ncnc2[nH]ncc12`, the Potency was inconclusive [inhibitor, full curve]. In the case of `COc1ccccc1Cc1c(C(C)(C)C)nc2cc(C)c(Br)c(C)n12`, the Potency is reported as inconclusive [inhibitor, partial curve]. For `CCC(C)[C@H](NC(=O)NCc1ccc(Cl)cc1)C(=O)OC` (stereo partly drawn), the Potency was inconclusive [inhibitor, partial curve, poor fit]. With `CCOc1ccc(C(=O)CN2C(=O)NC3(CCCCCC3)C2=O)cc1` the Potency was inconclusive [inhibitor, partial curve, poor fit]. In the case of `Cc1c(Cl)cccc1NC(=S)NCc1ccccc1Cl`, the Potency is reported as inconclusive [inhibitor, single point]. For `CC1CCc2c(sc3nnn(Cc4ccccc4Cl)c(=O)c23)C1` (stereo not drawn), the “activity change, negative = inhibition” value was inactive: -3.01%. For `O=C(O)C1C2C=CC(C2)C1C(=O)Nc1ccc(Cl)c(Cl)c1` (stereo not drawn), the Potency was inconclusive [inhibitor, partial curve, poor fit]. `Clc1ccc(-c2nc3ccc(Br)cn3c2Cc2ccccc2)cc1` was tested, and the Potency was inconclusive [inhibitor, partial curve, poor fit]. For `Clc1nc(NCCc2ccccc2)c2cn[nH]c2n1`, the “activity change, negative = inhibition” value was inactive: 109%. With `CCOc1cc(S(=O)(=O)NC2CCCC2)ccc1Cl` the Potency was inconclusive [inhibitor, single point]. With `COc1ccc(NC(=O)CN(CC(=O)Nc2ccc(OC)cc2)C(C)(C)CO)cc1` the Potency was inconclusive [inhibitor, partial curve, poor fit]. In the case of `COc1ccc(-c2csc(NC3CCCCC3)n2)c(OC)c1`, the Potency is reported as inconclusive [inhibitor, single point]. `COC(=O)c1ccccc1NC(=O)CCC(=O)N1CC(C)Oc2ccc(C)cc21` (stereo not drawn) was tested, and the Potency was inconclusive [inhibitor, single point]. `Cc1cc(/C=N/n2cnnc2)c(C)n1-c1ccc(OCc2ccc(F)cc2)cc1` was tested, and the Potency was inconclusive [inhibitor, single point]. In the case of `O=C1N(c2ccccc2)C(c2ccccc2)C12CCCCC2` (stereo not drawn), the Potency is reported as inconclusive [inhibitor, partial curve, poor fit]. `CC1(CC(=O)N/N=C/c2ccc(-c3cccc(C(F)(F)F)c3)o2)OCCO1` was tested, and the “activity change, negative = inhibition” value was inactive: 11%. With `CCCCCCNC(=O)CCCCCNS(=O)(=O)c1ccc(OC)cc1` the Potency was inconclusive [inhibitor, partial curve, poor fit]. `O=C(NCc1cccc(Cl)c1)C1CCCN(c2nn3cc(-c4ccc(F)cc4)nc3s2)C1` (stereo not drawn) was tested, and the Potency was inconclusive [inhibitor, partial curve, poor fit]. In the case of `COc1ccccc1NC(=O)Cn1c(=O)oc2cc(S(=O)(=O)NCc3ccccc3)ccc21`, the “activity change, negative = inhibition” value is reported as inactive: -18.6%. In the case of `Cc1ccccc1C(=O)NC1CC(C)(C)NC(C)(C)C1`, the “activity change, negative = inhibition” value is reported as inactive: 0%. `CC(C)(C)C1CCC(C(=O)OCC(=O)N2CCN(C(=O)c3ccco3)CC2)CC1` (stereo not drawn) was tested, and the Potency was inconclusive [inhibitor, single point]. `CCOC(=O)C/C(N)=N/N(C)c1ncc(C(F)(F)F)cc1Cl` was tested, and the Potency was inconclusive [inhibitor, single point]. For `CC(C)C(NS(=O)(=O)c1c(Cl)cccc1Cl)C(=O)OCC(=O)c1c[nH]c2ccccc12` (stereo not drawn), the Potency was inconclusive [inhibitor, partial curve, poor fit]. `Cc1nc(-c2ccccn2)nc(SCC(=O)c2ccc(F)cc2)c1Cl` was tested, and the Potency was inconclusive [inhibitor, single point]. In the case of `Fc1ccc(-c2cc(C(F)(F)F)nc(-n3cccn3)n2)cc1`, the Potency is reported as inconclusive [inhibitor, partial curve, poor fit]. For `Cc1cc(C(=O)COC(=O)CC2Sc3ccccc3NC2=O)c(C)n1-c1ccc(Br)cc1` (stereo not drawn), the Potency was inconclusive [inhibitor, single point]. For `CCOc1ccccc1NC(=O)C(C)SCc1ccccc1` (stereo not drawn), the Potency was inconclusive [inhibitor, partial curve, poor fit]. With `Fc1cccc(CN2CCN3CCCC3C2C2CCCCC2)c1` (stereo not drawn) the Potency was inconclusive [inhibitor, single point]. `O=C(c1cccc(Cl)c1)N1CCCC(c2ccc(Cl)cc2)=N1` was tested, and the Potency was inconclusive [inhibitor, single point]. `Cc1cc(C(=O)CSc2nnc(Nc3ccccc3)s2)c(C)n1CC1CCCO1` (stereo not drawn) was tested, and the Potency was inconclusive [inhibitor, single point]. `COc1ccc(/C=C(\C#N)C(=O)NC(C)c2ccccc2)cc1O` (stereo not drawn) was tested, and the Potency was inconclusive [inhibitor, partial curve, poor fit]. With `CCC(C)c1ccc(NC(=S)NC2CCN(Cc3ccccc3)CC2)cc1` (stereo not drawn) the Potency was inconclusive [inhibitor, full curve, poor fit]. With `CCN(CC)C(=O)c1cccc(-c2csc(C(C)(O)c3cccc(F)c3)n2)c1` (stereo not drawn) the Potency was inconclusive [inhibitor, partial curve, poor fit]. With `CCOC(=O)/C(Sc1nc(-c2ccccc2)cc(-c2ccccc2)c1C#N)=C(\C)O` the Potency was inconclusive [inhibitor, partial curve, poor fit]. `CCOc1ccc(-n2c(C)nc3cc(C(=O)NC4CCCC4)ccc32)cc1` was tested, and the Potency was inconclusive [inhibitor, single point]. For `C[C@@H](CSc1ccccc1)CN1CC[C@H](C(C)(C)C)CCC1=O`, the Potency was inconclusive [inhibitor, single point]. In the case of `NNC(=O)c1sc2cc(C(F)(F)F)cnc2c1-c1cccs1`, the “activity change, negative = inhibition” value is reported as inactive: 14.6%. For `COc1ccc(NC(=O)CCSc2cc(C)c3ccccc3n2)cc1`, the Potency was inconclusive [inhibitor, partial curve, poor fit]. In the case of `COc1ccc(NC(=S)N2CCC(C(O)(c3ccccc3)c3ccccc3)CC2)cc1`, the Potency is reported as inconclusive [inhibitor, partial curve, poor fit]. In the case of `COc1ccccc1CC(=O)Nc1ccc2nc(Nc3cccc(C(F)(F)F)c3)cc(C)c2c1`, the Potency is reported as inconclusive [inhibitor, full curve, poor fit]. In the case of `CCOc1ccc(S(=O)(=O)N2CCOCC2)cc1NC(=O)CSCc1ccc(C)cc1`, the Potency is reported as inconclusive [inhibitor, full curve]. With `O=S(=O)(c1ccccc1)N1CCN(Cc2ccccc2C(F)(F)F)CC1` the Potency was inconclusive [inhibitor, single point]. In the case of `Cc1cc(C(=O)NC2CCCc3ccccc32)c(C)o1` (stereo not drawn), the Potency is reported as inconclusive [inhibitor, single point]. For `Cc1nnc(N/N=C/c2ccc([N+](=O)[O-])cc2)n1N`, the “activity change, negative = inhibition” value was inactive: 33.8%. With `Cn1cc(S(=O)(=O)N2CCCC2)cc1C(=O)N1CCN(c2ccccc2)CC1` the “activity change, negative = inhibition” value was inactive: -3.96%. With `CC(C)c1ccc(NC(=O)C2CSC3(C)CCC(=O)N23)cc1` (stereo not drawn) the Potency was inconclusive [inhibitor, partial curve, poor fit]. In the case of `CC(C)(CCC(=S)N1CCOCC1)C1CCCCC1`, the Potency is reported as inconclusive [inhibitor, single point]. `O=C(CN1CCN(c2ccc(O)cc2)CC1)Nc1ccc(S(=O)(=O)N2CCCC2)cc1` was tested, and the Potency was inconclusive [inhibitor, partial curve, poor fit]. For `OCC1CCN(Cc2cn(Cc3ccccc3)nc2-c2cc3ccccc3o2)CC1`, the Potency was inconclusive [inhibitor, partial curve, poor fit]. For `Cc1ccc(-n2nc3c(=O)n(CCCC(=O)NCc4cccc(F)c4)nc(C)c3c2C)cc1`, the Potency was inconclusive [inhibitor, partial curve, poor fit]. With `O=C(Cc1ccc(Br)cc1)N(Cc1ccccc1)c1ccccn1` the Potency was inconclusive [inhibitor, single point]. With `Cc1ccc(C2C3=C(CCCC3=O)Nc3nc(SCC(=O)NCc4ccco4)[nH]c(=O)c32)cc1` (stereo not drawn) the “activity change, negative = inhibition” value was inactive: 3.01%. For `CCN(CC)CCN(C(=O)c1ccc(S(=O)(=O)N2CCCC2)cc1)c1nc2cc(C)cc(C)c2s1`, the Potency was inconclusive [inhibitor, full curve]. For `Cc1ccc(-c2cc(C(=O)N3CCN(c4ccccc4O)CC3)c3ccccc3n2)cc1`, the Potency was inconclusive [inhibitor, partial curve, poor fit].
